93 compounds from PubChem BioAssay AID360 (National Center for Advancing Translational Sciences (NCATS), 2006) can be followed below.

Out of some 48,000 compounds screened, about 550 (1.1%) were called active. About 4% were inconclusive and are not listed. No stated cut-off is given here; in the data, active means potency below about 15 µM; inconclusive means mostly about 16 µM to 33 µM; inactive means weaker than that. This is one part of the list.
Potency means the concentration at half of the fitted maximal effect.

Sequence of UniProt P04062 (P04062 whole entry, looked up): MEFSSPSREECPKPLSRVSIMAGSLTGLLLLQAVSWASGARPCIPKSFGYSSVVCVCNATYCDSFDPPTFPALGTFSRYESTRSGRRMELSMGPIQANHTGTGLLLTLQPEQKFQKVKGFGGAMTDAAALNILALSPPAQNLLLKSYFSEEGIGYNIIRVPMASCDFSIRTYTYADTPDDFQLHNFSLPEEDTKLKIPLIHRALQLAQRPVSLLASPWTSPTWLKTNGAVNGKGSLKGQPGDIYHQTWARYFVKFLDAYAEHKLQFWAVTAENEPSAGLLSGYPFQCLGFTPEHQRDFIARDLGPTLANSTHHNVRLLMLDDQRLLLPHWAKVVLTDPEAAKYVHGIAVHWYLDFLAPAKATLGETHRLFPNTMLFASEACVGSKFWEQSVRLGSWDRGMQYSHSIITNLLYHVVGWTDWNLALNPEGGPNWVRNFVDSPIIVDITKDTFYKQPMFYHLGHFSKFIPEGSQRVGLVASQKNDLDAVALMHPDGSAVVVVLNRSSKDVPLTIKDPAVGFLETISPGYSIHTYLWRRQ

The target of the assay is Lysosomal acid glucosylceramidase (Homo sapiens) (UniProt P04062). As to the kind of experiment: Glucocerebrosidase.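 Further: the screen sought inhibitors.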 The settings on record: purified enzyme, resorufin glucoside fluorescence (screen aimed at inhibitors), 20 min. In short, it runs like this:
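Normal human glucocerebrosidase (0.2 nM final) was assayed with resorufin β-D-glucopyranoside (30 uM final) in 50mM citric acid/KH2PO4, 10mM sodium taurocholate, 0.01% tween-20, pH 5.9. Compounds were titrated; fluorescence (Ex 548, Em 600) read after 20 min at RT.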
`O=C(CCNC(=O)c1ccc(Br)o1)NCc1ccccn1`: the Potency was inactive: > 76.9 µM. Take `CCOC(=O)Nc1sc(C)nc1-c1ccccc1`: the Potency was inactive: > 76.9 µM. Consider `O=C(CCN1CCc2ccccc2C1)Nc1ccc(F)cc1`, for which the Potency is inactive: > 76.9 µM. Turning to `CCOc1ccccc1OCC(=O)Nc1nnc(C)s1`, the Potency entry was “inactive”. With `Cn1c(N2CCN(C(=O)NCc3ccccc3)CC2)nc2ccccc21`, the Potency was inactive: > 76.9 µM.

For `O=C(CCn1c(=S)[nH]c2cc3c(cc2c1=O)OCO3)NCCN1CCCC1`, the Potency was inactive: > 76.9 µM.

As for `CCCCN1Cc2cc(C(=O)c3cc(F)ccc3O)cnc2NC1=O`, the Potency was inactive: > 76.9 µM. With `CCn1c(=NC(=O)CSC(C)=O)sc2ccccc21`, the Potency was inactive: > 76.9 µM.

As to `Cc1ccc(CNC(=O)c2cn(C3CCCCC3)c(=O)c3c2c2ccccc2n3C)o1`, the Potency is inactive: > 76.9 µM.

As to `Cc1ccccc1-c1nnc(SCc2ccc(F)cc2)o1`, the Potency is inactive: > 76.9 µM.

On to `COC(=O)c1c(NC(=O)C2CCC2)sc(C(=O)N(C)C)c1C`, for which the Potency was inactive: > 76.9 µM. As for `CCCCOC(=O)c1ccc(NC(=O)c2ocnc2C)cc1`, the Potency is inactive: > 76.9 µM. On to `CCCCCC(C(=O)O)C(C)CC(=O)NC1CCCCC1` (stereo not drawn), for which the Potency was inactive: > 76.9 µM.

For the compound `O=C(CSc1nnc(-c2ccncc2)n1-c1ccc(Cl)cc1)N1CCOCC1`, the Potency was inactive: > 76.9 µM.

As to `COC(=O)Cc1[nH]nc2c1C(c1c[nH]c3ccccc13)C(C#N)=C(N)O2` (stereo not drawn), the Potency was inactive: > 76.9 µM.

For the compound `COc1cccc(C(c2nnnn2CCc2ccccc2)N2CCN(c3ccccc3)CC2)c1OC` (stereo not drawn), the Potency was inactive: > 76.9 µM. With `COC(=O)c1ccc(-n2nnnc2SCC(=O)Nc2ccccc2OC)cc1`, the Potency is inactive: > 76.9 µM. Take `CCCCCc1nc2c(=O)[nH]c3ccccc3c2o1`: the Potency was inactive: > 76.9 µM. As for `CCN(CC)S(=O)(=O)c1ccc(C(=O)NCc2nnc(SCC(=O)OC)n2C)cc1`, the Potency was inactive: > 76.9 µM. For `CCOc1cc(S(=O)(=O)Nc2ccccn2)ccc1F`, the Potency is inactive: > 76.9 µM. Take `CCOC(=O)c1[nH]c2ccc(Br)cc2c1NC(=O)CCN1CCCCC1`: the Potency was inactive: > 76.9 µM.

Take `CCOC(=O)c1cccc(NC(=O)CSc2nc3ccccc3c(=O)n2CC)c1`: the Potency is inactive: > 76.9 µM. Turning to `CCN(CCCNC(=O)c1[nH]c(C)c(C(C)=O)c1C)c1ccccc1`, the Potency was inactive: > 76.9 µM. The value for `CN(CC(=O)NC1CCCCCC1)S(=O)(=O)c1ccccc1` was inactive: > 76.9 µM; that for `O=S(=O)(N1CCCCC1)N1CCN(S(=O)(=O)N2CCCCC2)CC1` was inactive: > 76.9 µM; that for `CCN(CC)C(=O)CSc1nnc(-n2nc(C)cc2C)c2ccccc12` was inactive: > 76.9 µM. In the case of `CCn1c(=O)cc(OCC(=O)N2CCN(C(=O)c3ccco3)CC2)c2ccccc21`, the Potency was inactive: > 76.9 µM.

As to `O=C(Cc1ccc(S(=O)(=O)N2CCCC2)s1)N1CCOCC1`, the Potency was inactive: > 76.9 µM. As for `Cc1cc2c(cc(C(=O)O)n2C)s1`, the Potency is inactive: > 76.9 µM. The value for `O=C(O)C1CC=CCC1C(=O)Nc1cccc(C(=O)N2CCCCC2)c1` (stereo not drawn) was inactive: > 76.9 µM. On to `COc1cc(C(C#N)N2CCOCC2)ccc1O` (stereo not drawn), for which the Potency was inactive: > 76.9 µM. As to `CCCCS(=O)(=O)/C=C\C1C2C=CC(C2)C1S(=O)(=O)CCCC` (stereo not drawn), the Potency is inactive: > 76.9 µM. The result for `Cc1cc(C)n2nc(NCc3ccccc3)nc2n1` reads inactive: > 76.9 µM; that for `O=c1[nH]c2c(n(C3CCCCC3)c1=O)CCC2`, inactive: > 76.9 µM; that for `COC(=O)c1ccccc1NC(=O)C1CCN(C(=O)c2cc(OC)cc(OC)c2)CC1`, inactive: > 76.9 µM.

Consider `O=C(N1CCOCC1)N1CCOCC1`, for which the Potency is inactive: > 76.9 µM.

Regarding `Cc1cc(S(=O)(=O)NCC(=O)O)ccc1F`, the Potency was inactive: > 76.9 µM. Take `O=C(Cc1cccs1)N(Cc1ccco1)C1(C(=O)NC2CCCC2)CCCCC1`: the Potency was inactive: > 76.9 µM. Consider `Cc1cc(C(C)c2ccccc2)c(O)c(CN2CCOCC2)c1C` (stereo not drawn), for which the Potency is inactive: > 76.9 µM.

Turning to `COc1ccc(CCNS(=O)(=O)c2ccccc2)cc1OC`, the Potency is inactive: > 76.9 µM.

`CCOC(=O)Nc1ccc(C)cc1Br`: the Potency is inactive: > 76.9 µM. In the case of `O=C(COC(=O)C1CC2C=CC1C2)Nc1ccc2c(c1)OC(F)(F)O2` (stereo not drawn), the Potency is inactive: > 76.9 µM. For the compound `O=C(Nc1ccc(Cl)c(Cl)c1)OCc1cccnc1`, the Potency is inactive: > 76.9 µM.

For `Cc1ccc(-c2nnn(CC(=O)Nc3ccccc3N3CCOCC3)n2)cc1`, the Potency is inactive: > 76.9 µM. The value for `COc1c(Cl)cc(Cl)cc1C(=O)Nc1ccccc1N1CCN(C(C)=O)CC1` was inactive: > 76.9 µM. As for `O=C1CSC(c2cn(-c3ccccc3)nc2-c2cccs2)N1CC1CCCO1` (stereo not drawn), the Potency was inactive: > 76.9 µM.

In the case of `CC1(C)CC(=O)C(C=Nc2ccccc2C(=O)O)=C(O)C1`, the Potency is inactive: > 76.9 µM. For `O=C(c1ccccc1/S(=N/S(=O)(=O)c1ccccc1)N1CCOCC1)N1CCOCC1` (stereo not drawn), the Potency is inactive: > 76.9 µM. Take `COc1cccc(CSc2nnc(-c3ccco3)n2C)c1`: the Potency is inactive: > 76.9 µM. For `COC(=O)Cc1c(C)nc2nc(Cc3ccccc3)[nH]n2c1=O`, the Potency was inactive: > 76.9 µM. The value for `Cc1ccc(NCc2nnc(SCC(=O)N3CCCc4ccccc43)o2)c(C)c1` was inactive: > 76.9 µM.

Take `Cn1nnnc1SCC(=O)NC(C)(C)C`: the Potency is inactive: > 76.9 µM. On to `O=C(O)CCCNS(=O)(=O)c1cccs1`, for which the Potency was inactive: > 76.9 µM. For `Cc1nc(SCC(=O)NCc2ccc3c(c2)OCO3)c(C#N)c2c1CCCC2`, the Potency is inactive: > 76.9 µM. Regarding `Cc1ccc(-c2nc3ccccc3c(=O)n2CCCn2ccnc2)cc1`, the Potency was inactive: > 76.9 µM. Consider `CS(=O)(=O)N(CCc1ccccc1)CC(=O)NCC1CCCO1` (stereo not drawn), for which the Potency was inactive: > 76.9 µM. As for `CC(C)Cn1c(=O)c(C(=O)NCc2ccccn2)c(O)c2ccccc21`, the Potency is inactive: > 76.9 µM. For `CCOC(=O)Cc1cc(=O)n2[nH]c(C)c(-c3ccccc3)c2n1`, the Potency was inactive: > 76.9 µM. The value for `CCOc1ccc(C2C(C#N)=C(N)Oc3n[nH]c(C)c32)cc1OC(=O)C1CC1` (stereo not drawn) was inactive: > 76.9 µM. `COc1cccc(C(C(=O)NC(C)(C)C)N(C(=O)CCC(=O)Nc2cc(C)on2)C2CC2)c1OC` (stereo not drawn): the Potency is inactive: > 76.9 µM.

On to `CCN(CC)C(=O)CSC(=Nc1ccccc1F)NC#N`, for which the Potency is inactive: > 76.9 µM.

As to `CC1CCCC(NC(=O)c2n[nH]c(=O)c3ccccc23)C1C` (stereo not drawn), the Potency is inactive: > 76.9 µM.

In the case of `COc1ccc(OC)c(NC(=O)CCC(=O)Nc2nnc(C(F)(F)F)s2)c1`, the Potency was inactive: > 76.9 µM. `COC(=O)c1ccc(CSc2nc3c(cnn3-c3ccc(C)cc3)c(=O)[nH]2)o1`: the Potency was inactive: > 76.9 µM. As to `COc1cc(OC)cc(OCC(O)Cn2ccnc2C)c1` (stereo not drawn), the Potency was inactive: > 76.9 µM.

As to `CCOC(=O)Cn1c2ccc(OC)cc2c2nc3ccccc3nc21`, the Potency was inactive: > 76.9 µM. `O=C(O)CN1C(=O)CNC1=O`: the Potency was inactive: > 76.9 µM. For `CC(=O)Cc1nsc(NC(=O)c2c(-c3ccccc3Cl)noc2C)n1`, the Potency was inactive: > 76.9 µM. As to `O=C(c1ccncc1)c1ccc(Br)cc1`, the Potency is inactive: > 76.9 µM. Consider `O=C(NCc1cccs1)c1nc2c(nnn2Cc2ccc(F)cc2)c(=O)[nH]1`, for which the Potency is inactive: > 76.9 µM. Take `COc1cc2nc(C3CC3)n(NC(=O)c3ccc(F)cc3)c(=O)c2cc1OC`: the Potency is inactive: > 76.9 µM. As to `CC(=O)c1cccc(NC(=O)Nc2ccc3c(c2)N(C)C(=O)CS3)c1`, the Potency is inactive: > 76.9 µM. As for `CCCC(=O)Nc1nnc(Sc2ccc(N(C)C)cc2)s1`, the Potency was inactive: > 76.9 µM. Consider `COc1ccc(C2C(C(=O)O)CC(=O)N2c2ccc(OC)cc2)cc1` (stereo not drawn), for which the Potency was inactive: > 76.9 µM. Consider `CSc1ccccc1NC(=O)C1CC(c2ccccc2O)=NO1` (stereo not drawn), for which the Potency was inactive: > 76.9 µM. Regarding `COc1ccc(NC(=O)COC(=O)c2ccc(Br)o2)cc1OC`, the Potency is inactive: > 76.9 µM. The value for `CC1(C)Cc2c(sc3c2c(=N)n(Cc2ccco2)c(=O)n3Cc2ccc(Cl)cc2)CO1` was inactive: > 76.9 µM. As to `CCOC(=O)c1[nH]c(C(=O)O)c(CCN(CC)CC)c1C`, the Potency is inactive: > 76.9 µM.

`Cc1cc(NC(=O)c2ccc(S(=O)(=O)N3CCCC3)cc2)nc2c1c(=O)oc1ccccc12`: the Potency was inactive: > 76.9 µM.

Regarding `CCCCOCCCNC(=O)N[C@@H](CC(C)C)C(=O)O`, the Potency is inactive: > 76.9 µM. The result for `CCOCCCNC(=O)C(Cc1ccccc1)NC(=O)c1ccco1` (stereo not drawn) reads inactive: > 76.9 µM; that for `Cc1ccc2c(C)nc(Nc3ncc4c(n3)CCCC4=O)nc2c1`, inactive: > 76.9 µM.

`Cc1cc(C)c(C#N)c(SCc2ccccc2C(=O)O)n1`: the Potency is inactive: > 76.9 µM.

Take `Cc1ccc(NC2c3ncccc3C(=O)N2C2CCCCC2)cc1` (stereo not drawn): the Potency was inactive: > 76.9 µM. The value for `CCC(Sc1nc2ccccc2c(=O)n1CC1CCCO1)C(=O)NCc1cccnc1` (stereo not drawn) was inactive: > 76.9 µM; that for `Cc1cc(N2CCC(C(=O)N3CCN(c4cccc(C)c4C)CC3)CC2)n2ncnc2n1` was inactive: > 76.9 µM. Consider `O=C(Nc1cccc(NC(=O)c2ccc(-c3cccc(Br)c3)o2)c1)c1ccco1`, for which the Potency was inactive: > 76.9 µM.

Regarding `COc1ccc2c(-c3cccnc3)cc(=O)[nH]c2c1`, the Potency is active: 8.92 µM. The result for `O=C(CN1C(=O)c2ccccc2C1=O)OCC(=O)N1CCc2ccccc2C1` reads inactive: > 76.9 µM; that for `CCC(=O)N(CC)c1nc(-c2ccc(OC)cc2)cs1`, inactive: > 76.9 µM. The result for `Cn1c(=O)n(C)c2cc(S(=O)(=O)N3CCOCC3)ccc21` reads inactive: > 76.9 µM; that for `Cc1n[nH]c(C)c1-c1nc2ccccc2[nH]1`, inactive: > 76.9 µM; that for `Cc1ccc2cc(CN(Cc3nnnn3Cc3ccco3)CC3CCCO3)c(=O)[nH]c2c1C` (stereo not drawn), inactive: > 76.9 µM.
